This is one part of the list. Values come from read counts of a selection and are noisy.
T1: SPOP_MATH__O43791_19_176
T1 chain: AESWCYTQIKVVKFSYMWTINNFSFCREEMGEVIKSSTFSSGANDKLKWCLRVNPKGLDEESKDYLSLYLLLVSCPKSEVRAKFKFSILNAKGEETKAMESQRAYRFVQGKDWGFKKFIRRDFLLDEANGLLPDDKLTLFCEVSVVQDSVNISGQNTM


biological target: GABARAPL1_ATG8__Q9H0R8_2_115; assay: mean normalised NGS count of phage-displayed peptide after selection on bait (% of reads); baits are purified protein domains named by gene / domain / UniProt id / residues; peptides come from disordered regions of human proteins; higher = stronger enrichment / binding; conditions: replicate selections in which the peptide was seen: 4

| Binder | mean normalised NGS count |
| --- | --- |
| NLLLNEAFVKVPRDDK [FOXC1 123-138 mut Q99958.S125L] | 0.0201 |
| KNDAGMQEAFTTLSVL [TTN 8495-8510 mut Q8WZ42.A8505T] | 0.035 |
| EVTRHEVSAEEEWSYL [TTN 10410-10425 mut Q8WZ42.S10425L] | 0.0309 |
| IVEKHESGTTAWQLVN [TTN 29704-29719 mut Q8WZ42.R29708H] | 0.0487 |
| PPAPLAHSDDYVHISL [TSC1 396-411 wt] | 0.0058 |
| NLLLNEAFVKVPRDDK [FOXC2 123-138 mut Q99958.S125L] | 0.0201 |
| GTNQHFVMVEVHHPDS [WHRN 716-731 mut Q9P202.R728H] | 0.0113 |

biological target: MAP1LC3B_ATG8__Q9GZQ8_2_119; assay: as above; conditions: replicate selections in which the peptide was seen: 6

| Binder | mean normalised NGS count |
| --- | --- |
| KNDAGMQEAFTTLSVL [TTN 8495-8510 mut Q8WZ42.A8505T] | 1.83 |
| PTLPDISDDKDEWQFL [BUB1 478-493 mut O43683.S492F] | 0.452 |
| SSQSERGLVEEEWVIV [ANK2 1580-1595 mut Q01484.R1582Q] | 1.09 |
| GDDDWTHLSSKEVDPS [SQSTM1 334-349 wt] | 3.97 |
| TTVREERFEVLHGREA [TTN 909-924 wt] | 0.841 |
| EEHFEVLHGREAKVTE [TTN 913-928 mut Q8WZ42.R915H] | 0.0585 |
| LAHLDDYVHISLPQAT [TSC1 400-415 mut Q92574.S403L] | 0.101 |
| SSRSERGLVEEEWVIV [ANK2 1580-1595 wt] | 2.17 |
| GDDDWTHLSSKEVDLS [SQSTM1 334-349 mut Q13501.P348L] | 16 |
| WTHLSSKEVDLSTGEL [SQSTM1 338-353 mut Q13501.P348L] | 5.15 |
| WTMVDPVREAREGGLI [SURF1 137-152 mut Q15526.R137W] | 0.833 |
| SITGTTVREEHFEVLH [TTN 905-920 mut Q8WZ42.R915H] | 3.12 |
| SITGTTVREERFEVLH [TTN 905-920 wt] | 0.575 |
| EERFEVLHGREAKVTE [TTN 913-928 wt] | 0.144 |
| LAHSDDYVHISLPQAT [TSC1 400-415 wt] | 0.341 |

same assay, conditions: replicate selections in which the peptide was seen: 4

| Binder | mean normalised NGS count |
| --- | --- |
| EVTRHEVSAEEEWSYL [TTN 10410-10425 mut Q8WZ42.S10425L] | 0.0759 |
| PPAPLAHLDDYVHISL [TSC1 396-411 mut Q92574.S403L] | 0.885 |

biological target: GABARAPL2_ATG8__P60520_2_115; assay: as above; conditions: replicate selections in which the peptide was seen: 6
Sequence (chain, as listed by the source): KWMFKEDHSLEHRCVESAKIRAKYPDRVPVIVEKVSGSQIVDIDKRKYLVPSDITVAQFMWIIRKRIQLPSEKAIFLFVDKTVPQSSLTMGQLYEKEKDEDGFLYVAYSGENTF

| Binder | mean normalised NGS count |
| --- | --- |
| IVEKHESGTTAWQLVN [TTN 29704-29719 mut Q8WZ42.R29708H] | 0.0127 |
| GTNQHFVMVEVHHPDS [WHRN 716-731 mut Q9P202.R728H] | 0.121 |
| PPAPLAHLDDYVHISL [TSC1 396-411 mut Q92574.S403L] | 0.0423 |
| LNADSWDFVAAIISIP [KCND1 587-602 mut Q9NSA2.R592W] | 0.0246 |
| EDGWWTVERNGQAGFV [PSTPIP1 393-408 mut O43586.R405C] | 0.0148 |
| TVFETLDIGWQLLPIF [ATP6V1B2 472-487 mut P21281.R485P] | 0.082 |
| EVSQVLKGYDWTLVPM [SOX9 76-91 mut P48436.A76E] | 0.358 |
| WTHLSSKEVDLSTGEL [SQSTM1 338-353 mut Q13501.P348L] | 0.0354 |
| IVEKRESGTTAWQLVN [TTN 29704-29719 wt] | 0.0662 |

biological target: MAP1LC3B_ATG8__Q9GZQ8_2_119; assay: as above; conditions: replicate selections in which the peptide was seen: 2

| Binder | mean normalised NGS count |
| --- | --- |
| PPAPLAHSDDYVHISL [TSC1 396-411 wt] | 0.0277 |
| VSKAEEEFFNIIFAEL [DNAI2 545-560 mut Q9GZS0.D554N] | 0.0227 |
| LNADSWDFVAAIISIP [KCND1 587-602 mut Q9NSA2.R592W] | 0.00372 |

biological target: GABARAPL1_ATG8__Q9H0R8_2_115; assay: as above; conditions: replicate selections in which the peptide was seen: 5

| Binder | mean normalised NGS count |
| --- | --- |
| PTLPDISDDKDEWQFL [BUB1 478-493 mut O43683.S492F] | 0.0224 |
| WQFLDQNEDAFEAQFQ [BUB1 490-505 mut O43683.S492F] | 0.0545 |
| QSDKTPEELFHLLGAD [SLC2A1 474-489 mut P11166.P485L] | 0.13 |
| VNTEWEKLNLHSADWQ [DMD 2911-2926 wt] | 0.0141 |
| EEFQYIGELQGYDIME [MSH2 852-867 mut P43246.S860L] | 0.0586 |
| YDGWNQLNYTTEELRN [SLC7A9 232-247 mut P82251.I241T] | 0.0435 |
| SSQSERGLVEEEWVIV [ANK2 1580-1595 mut Q01484.R1582Q] | 0.182 |
| NLSLNEAFVKVPRDDK [FOXC1 123-138 wt] | 0.0123 |
| GDDDWTHLSSKEVDPS [SQSTM1 334-349 wt] | 0.112 |
| SITGTTIREERFEVLH [TTN 905-920 mut Q8WZ42.V911I] | 0.627 |
| TTVREEHFEVLHGREA [TTN 909-924 mut Q8WZ42.R915H] | 0.0197 |
| TTVREERFEVLHGREA [TTN 909-924 wt] | 0.264 |
| EEHFEVLHGREAKVTE [TTN 913-928 mut Q8WZ42.R915H] | 0.0167 |
| MQESFVEMSSSSFMGI [TTN 34218-34233 wt] | 0.0606 |
| PPAPLAHLDDYVHISL [TSC1 396-411 mut Q92574.S403L] | 0.266 |
| LAHLDDYVHISLPQAT [TSC1 400-415 mut Q92574.S403L] | 0.00831 |
| EDDQRQADRDWYMMDE [DHX38 316-331 wt] | 0.016 |
| AMDFEVLSTKFEMQDL [ZNF469 3015-3030 mut Q96JG9.T3016M] | 0.00738 |
| NLSLNEAFVKVPRDDK [FOXC2 123-138 wt] | 0.0123 |
| DWIQLQYSQSLIEKDQ [CARD10 403-418 mut Q9BWT7.R404W] | 0.107 |
| VSKAEEEFFNIIFAEL [DNAI2 545-560 mut Q9GZS0.D554N] | 0.144 |
| LNADSWDFVAAIISIP [KCND1 587-602 mut Q9NSA2.R592W] | 0.0666 |

biological target: MAP1LC3B_ATG8__Q9GZQ8_2_119; assay: as above; conditions: replicate selections in which the peptide was seen: 3

| Binder | mean normalised NGS count |
| --- | --- |
| WQFLDQNEDAFEAQFQ [BUB1 490-505 mut O43683.S492F] | 0.00612 |
| DWIQLQYSQSLIEKDQ [CARD10 403-418 mut Q9BWT7.R404W] | 0.457 |
| DKDEWQFLDQNEDAFE [BUB1 486-501 mut O43683.S492F] | 0.0695 |

biological target: GABARAPL2_ATG8__P60520_2_115; assay: as above; conditions: replicate selections in which the peptide was seen: 2

| Binder | mean normalised NGS count |
| --- | --- |
| EEFQYIGELQGYDIME [MSH2 852-867 mut P43246.S860L] | 0.00335 |
| GDDDWTHLSSKEVDLS [SQSTM1 334-349 mut Q13501.P348L] | 0.013 |

biological target: MAP1LC3B_ATG8__Q9GZQ8_2_119; assay: as above; conditions: replicate selections in which the peptide was seen: 5

| Binder | mean normalised NGS count |
| --- | --- |
| SITGTTIREERFEVLH [TTN 905-920 mut Q8WZ42.V911I] | 0.0258 |
| AMDFEVLSTKFEMQDL [ZNF469 3015-3030 mut Q96JG9.T3016M] | 2.07 |
| LPPEDDTWDNVYYYDE [CDH1 742-757 mut P12830.R749W] | 0.941 |
| TVFETLDIGWQLLPIF [ATP6V1B2 472-487 mut P21281.R485P] | 0.651 |
| AEEEWSYLEEEEGVSI [TTN 10418-10433 mut Q8WZ42.S10425L] | 0.0336 |

biological target: GABARAPL2_ATG8__P60520_2_115; assay: as above; conditions: replicate selections in which the peptide was seen: 4

| Binder | mean normalised NGS count |
| --- | --- |
| TTVREERFEVLHGREA [TTN 909-924 wt] | 0.00648 |
| LAHSDDYVHISLPQAT [TSC1 400-415 wt] | 0.0166 |

biological target: GABARAPL1_ATG8__Q9H0R8_2_115; assay: as above; conditions: replicate selections in which the peptide was seen: 6

| Binder | mean normalised NGS count |
| --- | --- |
| EDGWWTVERNGQAGFV [PSTPIP1 393-408 mut O43586.R405C] | 0.197 |
| DKDEWQFLDQNEDAFE [BUB1 486-501 mut O43683.S492F] | 0.0181 |
| LPPEDDTWDNVYYYDE [CDH1 742-757 mut P12830.R749W] | 0.199 |
| TVFETLDIGWQLLPIF [ATP6V1B2 472-487 mut P21281.R485P] | 2.25 |
| REFALEDFTFLRDPWN [SCN1A 176-191 mut P35498.G177E] | 0.0141 |
| EVSQVLKGYDWTLVPM [SOX9 76-91 mut P48436.A76E] | 0.757 |
| SSRSERGLVEEEWVIV [ANK2 1580-1595 wt] | 0.18 |
| GDDDWTHLSSKEVDLS [SQSTM1 334-349 mut Q13501.P348L] | 0.76 |
| WTHLSSKEVDLSTGEL [SQSTM1 338-353 mut Q13501.P348L] | 0.028 |
| WTMVDPVREAREGGLI [SURF1 137-152 mut Q15526.R137W] | 0.451 |
| SITGTTVREEHFEVLH [TTN 905-920 mut Q8WZ42.R915H] | 0.532 |
| SITGTTVREERFEVLH [TTN 905-920 wt] | 0.614 |
| EERFEVLHGREAKVTE [TTN 913-928 wt] | 0.0563 |
| AEEEWSYLEEEEGVSI [TTN 10418-10433 mut Q8WZ42.S10425L] | 0.117 |
| IVEKRESGTTAWQLVN [TTN 29704-29719 wt] | 0.16 |
| LAHSDDYVHISLPQAT [TSC1 400-415 wt] | 0.108 |

biological target: GABARAPL2_ATG8__P60520_2_115; assay: as above; conditions: replicate selections in which the peptide was seen: 3

| Binder | mean normalised NGS count |
| --- | --- |
| DKDEWQFLDQNEDAFE [BUB1 486-501 mut O43683.S492F] | 0.0056 |

Biological target: T1, SPOP_MATH__O43791_19_176
Assay: as above
Conditions: replicate selections in which the peptide was seen: 4

| Binder | mean normalised NGS count |
| --- | --- |
| IVEKRESGTTAWQLVN [TTN 29704-29719 wt] | 0.394 |
